Experimental data as given in patent US9803013B2, “Biological materials and uses thereof” (BioInvent International AB, priority 2005, dated 2017).

Columns and labels:
Raji B lymphoma cells = assay: Direct cell cytotoxicity in the absence of cross-linking reagents, 24 hours; type: cell-based, human; conditions: absence of cross-linking reagents, 20, 6.7 or 2.2 μg/ml
Description: Cells were harvested and viability was determined as the percentage of Annexin V and Propidium Iodide double negative cells.

[1] = tested on: carcinoma cell lines initially tested; assay: IgG binding to tumour cell lines, flow cytometry; set-up: species or system human; conditions: all carcinoma cell lines initially tested
Excerpt: FIG. 6—Binding of B1, B11, C11 IgG, to tumour cell lines of different origin. The antigen distribution of antigens targeted by the B1, B11, and C11 antibodies on different carcinoma cell lines was investigated by flow-cytometry.
The antigen distribution of human antibody targeted antigens, mainly for B11, on different carcinoma cell lines was investigated. Cells (MCF-7 and MDA MB 435S breast carcinoma, JAR and JEG-3 chorio-carcinoma, A549 lung carcinoma, TCC-SUP urinary bladder carcinoma, MDA MB 435 melanoma, HPAC, PANC-1 and BxPC-3 pancreatic carcinoma, PC-3 and DU145 prostate carcinoma, LS174 T, CaCo2, and Lovo colorectal carcinoma, and THP-1 monocytic leukaemia cells), were washed in PBS, and resuspended at 4×10^6 cells/ml in Complete Medium (200,000 cells/50 […] sample). […] Cells were incubated with either of the antibodies for 1 hour on ice, washed by resuspension in PBS/BSA 0.5%, centrifuged at 1200 rpm for 5 min, and complete aspiration of the supernatants was undertaken. Cells were incubated with PE-conjugated Goat F(ab′)2 anti-Human IgG (Caltag Laboratories, Cat no: H10104), diluted 1/50 in PBS/BSA 0.5%, for 30 min, on ice. Following resuspension of in 300 μl PBS/BSA 0.5%, cells were analysed for IgG binding using a FACScan instrument.

PC-3 cells = assay: Apoptosis induction in carcinoma cells (cross-linked IgG, 16-24 hours, Annexin V/PI); type: cell-based, human; conditions: PC-3, cross-linked IgG
Description: The prostate carcinoma cell line PC-3 was grown in Complete Growth Medium (RPMI 1640, supplemented with 10% FCS, 10 mM HEPES, and 2 mM L-Glutamine) to 80% confluency in a 6 well plate. The prostate carcinoma cell line DU145 was grown in MEM with Earl's salts, supplemented with 10% FCS, 1 mM sodium pyruvate, and 1 mM non-essential amino acids and the derivate of a melanoma cell line MDA MB 435 was grown in DMEM supplemented with 10% FCS.
For apoptosis assays cells were washed in PBS and serially diluted B11 IgG1 (or B1 IgG1, Trastuzumab or negative antibody control for controls) was added to individual wells and binding was allowed during a 1-2 h incubation at 4° C. The cells were washed and Complete Growth Medium was added, containing cross-linking antibody, Fab′2 Goat anti-Human Fab′2, at 10 μg/ml. Cells were incubated in a humidified atmosphere, with 5% CO2 at 37° C., for 16-24 hours. […] The percentage apoptotic cells was determined by the formula: % apoptotic cells=100−% AF488−AV/PI−/−.
Cells were seeded in 6 well plates with Complete Growth Medium three days before the onset of the experiment. […] Cells were washed in ice-cold PBS, subjected to Annexin V/propidium iodide staining, and analysed for viability/apoptosis as described in example 5 above.

B lymphoma tissue = assay: Immunohistochemistry on cryopreserved lymph node biopsies; type: binding, human; set-up: key: Increasing numbers of + indicate stronger staining.; ++: Increasing numbers of + indicate stronger staining.; +++: Increasing numbers of + indicate stronger staining
Description: Cryopreserved lymph node biopsies of patients with Anaplastic Large Cell B lymphoma (one patient), Centroblastic/Centrocytic B non-Hodgkin lymphoma (three patients), and B cell chronic lymphocytic leukaemia (one patient) were obtained from the Department of Pathology at Lund University (Lund, Sweden). Eight-micrometer sections of cryo-preserved tissue were fixed in acetone for 10 min at 4° C. Endogenous biotin-binding activity was blocked by sequential treatment with Avidin and Biotin (Avidin/Biotin blocking kit, Invitrogen) for 20 min each.
Tissues were incubated with 5 μg/ml control scFv or B11 scFv for 1 h. Following washing, sections were incubated with biotin-conjugated mouse anti-His mAb (R&D Systems) for 30 min. scFv binding was detected following treatment with ABC Complex/HRP reagent (Dako Cytomation) for 30 min, and subsequent incubation with DAB for 5 min.
Sections were photographed using a Leica DC 300F digital camera mounted on top of a Leica DMR light/fluorescence microscope.

DOHH-2 = assay: IgG binding to B lymphoma cell line, flow cytometry MFI; set-up: species or system human; conditions: DOHH-2, Follicular Lymphoma; control FITC-8 IgG MFI subtracted
Description: (§1) • ^aApoptosis Induction; determined by percentage of viable cells after 6 hour incubation with any of the human antibodies, crosslinked with Goat anti-Human (gamma) Fc specific antibody; −, viability not affected; +, 95-80%; ++, 79-60%; +++, 59-40% viable cells compared to control (human FITC-8 IgG1). […] The cell line dependent MFI value of control human FITC-8 IgG antibody was subtracted from the MFI of each human antibody.

Granta 519 = assay: as above; set-up: species or system human; conditions: Granta 519, Mantle cell Lymphoma; control FITC-8 IgG MFI subtracted
Description: as §1

JVM-2 = assay: as above; set-up: species or system human; conditions: JVM-2, Mantle cell Lymphoma; control FITC-8 IgG MFI subtracted
Description: as §1

Rec-1 = assay: as above; set-up: species or system human; conditions: Rec-1, Mantle cell Lymphoma; control FITC-8 IgG MFI subtracted
Description: as §1

RL = assay: as above; set-up: species or system human; conditions: Follicular Lymphoma, control FITC-8 IgG MFI subtracted
Description: as §1

Ramos = assay: as above; set-up: species or system human; conditions: Burkitt's Lymphoma, control FITC-8 IgG MFI subtracted
Description: as §1

Raji = assay: as above; set-up: species or system human; conditions: Burkitt's Lymphoma, control FITC-8 IgG MFI subtracted
Description: as §1

MC/CAR = assay: IgG binding to multiple myeloma cell line, flow cytometry MFI; set-up: species or system human; conditions: control FITC-8 IgG MFI subtracted
Description: as §1

B1: B1: fully human IgG1 antibody specific for HLA-DR/DP; VH and VL sequences of FIG. 9 (SEQ ID NOs. 2 and 4) (antibody, listed as Homo sapiens, V domains shown)
VH: [about 100 residues left out here]DGLLPLDYWGQGTLVTVSS
VL: QSVLTQPPSASGTPGQRVTISCSGGSSNIGGNAVNWYQQLPGTAPKLLIYENNKRPSGVPDRFSGSKSGTSASLAISGLRSEDEADYYCSSYAVSNNFEVLFGGGTKLTVLG
direct cell cytotoxicity (Raji B lymphoma cells): induce direct cell cytotoxicity
binding [1]: lack of binding
Apoptosis Induction (PC-3 cells): did not induce apoptosis
Staining of B lymphoma tissue (B lymphoma tissue; Patient A, B-CLL (low malignant non-Hodgkin Lymphoma)): ++
Staining of B lymphoma tissue (B lymphoma tissue; Patient B, Anaplastic Large Cell B Cell Lymphoma): +++
Staining of B lymphoma tissue (B lymphoma tissue; Patient C, Centroblastic-Centrocytic B non-Hodgkin Lymphoma): ++
Staining of B lymphoma tissue (B lymphoma tissue; Patient D, B-CLL/B-PLL): +++
Staining of B lymphoma tissue (B lymphoma tissue; Patient E, Centroblastic B non-Hodgkin Lymphoma): +++
Staining of B lymphoma tissue (B lymphoma tissue; Patient F, Centroblastic-Centrocytic B non-Hodgkin Lymphoma): +++
MFI (DOHH-2): 140
MFI (Granta 519): 370
MFI (JVM-2): 650
MFI (Rec-1): 0
MFI (RL): 50
MFI (Ramos): 125
MFI (Raji): 550
MFI (MC/CAR): 290
